{
  "source": "paper PMC4336329",
  "about": "(PLoS ONE, 2015)",
  "note": "Among all 310,000 compounds or so, about 2,200 (0.71%) showed an effect of 50% or more. Effects have a minus sign here. The list shows a part of the results.",
  "data": [
    {"biological_target": "human ether-à-go-go-related gene (hERG) potassium channel (human, UniProt Q12809)", "sequence (Q12809 whole entry, looked up)": "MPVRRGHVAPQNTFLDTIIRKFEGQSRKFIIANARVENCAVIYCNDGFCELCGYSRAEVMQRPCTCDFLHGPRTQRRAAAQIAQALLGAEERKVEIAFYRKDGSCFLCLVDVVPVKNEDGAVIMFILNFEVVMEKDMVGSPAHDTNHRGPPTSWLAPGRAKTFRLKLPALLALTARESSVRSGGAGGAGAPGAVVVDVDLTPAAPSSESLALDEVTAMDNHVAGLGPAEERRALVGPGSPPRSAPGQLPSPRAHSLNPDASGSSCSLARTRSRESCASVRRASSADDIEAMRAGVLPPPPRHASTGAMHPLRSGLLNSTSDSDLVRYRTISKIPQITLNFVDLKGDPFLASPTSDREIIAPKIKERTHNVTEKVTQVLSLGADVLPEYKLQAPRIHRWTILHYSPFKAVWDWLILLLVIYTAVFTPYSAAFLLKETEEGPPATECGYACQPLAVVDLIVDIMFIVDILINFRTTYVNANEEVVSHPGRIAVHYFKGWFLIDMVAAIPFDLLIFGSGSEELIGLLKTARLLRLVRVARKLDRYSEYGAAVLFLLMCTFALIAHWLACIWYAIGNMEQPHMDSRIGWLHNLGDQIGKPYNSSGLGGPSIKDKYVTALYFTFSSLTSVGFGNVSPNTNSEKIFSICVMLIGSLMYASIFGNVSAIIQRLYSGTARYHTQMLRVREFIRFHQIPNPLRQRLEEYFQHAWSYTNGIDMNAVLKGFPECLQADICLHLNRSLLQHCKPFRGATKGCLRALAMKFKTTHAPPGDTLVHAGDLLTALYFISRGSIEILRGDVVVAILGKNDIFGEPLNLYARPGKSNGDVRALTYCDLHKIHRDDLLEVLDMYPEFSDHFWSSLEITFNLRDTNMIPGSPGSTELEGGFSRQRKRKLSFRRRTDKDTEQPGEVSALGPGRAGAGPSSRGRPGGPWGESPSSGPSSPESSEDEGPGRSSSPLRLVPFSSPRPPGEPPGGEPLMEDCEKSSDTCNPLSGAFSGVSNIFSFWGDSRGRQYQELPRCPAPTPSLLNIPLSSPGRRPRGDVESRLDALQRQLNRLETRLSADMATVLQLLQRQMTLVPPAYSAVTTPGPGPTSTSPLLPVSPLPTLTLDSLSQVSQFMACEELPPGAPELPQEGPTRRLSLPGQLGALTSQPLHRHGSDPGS", "assay": "primary screen, population patch clamp on CHO cells stably expressing hERG", "units": {"hERG current change (%, negative = inhibition) at 1uM": "%"}, "values": [
      {"smiles": "O=C(CN1CCN(S(=O)(=O)N2CCOCC2)CC1)Nc1cc(Cl)ccc1Cl", "hERG current change (%, negative = inhibition) at 1uM": -38.8},
      {"smiles": "O=C(CSc1nncs1)NC(=O)NC1CCCC1", "hERG current change (%, negative = inhibition) at 1uM": 18.4},
      {"smiles": "COc1ccc(CSc2nc3ccccc3[nH]2)cc1", "hERG current change (%, negative = inhibition) at 1uM": 4},
      {"smiles": "CCOC(=O)N1CCN(c2nc(C)cc(C(F)(F)F)n2)CC1", "hERG current change (%, negative = inhibition) at 1uM": 11.2},
      {"smiles": "CCC(=O)Nc1cc(-c2nn(C)c(=O)c3ccccc23)ccc1OC", "hERG current change (%, negative = inhibition) at 1uM": 1.7},
      {"smiles": "COc1cc(/C=C/C(=O)Nc2ccc(C)cc2)cc(OC)c1OC", "hERG current change (%, negative = inhibition) at 1uM": 9.07},
      {"smiles": "COc1ccc(NC(=O)N2CCc3ccccc3C2)cc1", "hERG current change (%, negative = inhibition) at 1uM": 17.1},
      {"smiles": "CC(CCc1ccccc1)NC(=O)CN1CCN(Cc2ccccc2)C1=O", "note": "(centres unmarked)", "hERG current change (%, negative = inhibition) at 1uM": -2.07},
      {"smiles": "COC(=O)c1ccc(NC(=O)COc2ccc(S(=O)(=O)N3CCCCC3)cc2)cc1", "hERG current change (%, negative = inhibition) at 1uM": -0.608},
      {"smiles": "O=[N+]([O-])c1ccc(-c2cn3nc(-c4ccccc4)c(-c4ccccc4)nc3n2)cc1", "hERG current change (%, negative = inhibition) at 1uM": 7.84},
      {"smiles": "CCn1c(C)nc2cc(C(=O)N/N=C/c3ccc(O)cc3)ccc21", "hERG current change (%, negative = inhibition) at 1uM": 13.5},
      {"smiles": "O=C(CSCc1ccc(Cl)cc1)N/N=C/c1ccccc1", "hERG current change (%, negative = inhibition) at 1uM": 7.51},
      {"smiles": "COC(CNC(=O)[C@H](CSCc1ccccc1)N1Cc2ccccc2C1=O)OC", "hERG current change (%, negative = inhibition) at 1uM": 3.67},
      {"smiles": "CCOC(=O)[C@H]1[C@H]2COc3ccc(OC)cc3[C@@H]2N2C(=O)c3ccc(C)cc3NC(=O)[C@@]12C", "hERG current change (%, negative = inhibition) at 1uM": 11.4},
      {"smiles": "C=CCOc1ccc(C2=NO[C@@H]3[C@@H]4C[C@@H]([C@H]5C(=O)N(C)C(=O)[C@@H]45)[C@H]23)cc1", "hERG current change (%, negative = inhibition) at 1uM": 9.77},
      {"smiles": "O=C(Oc1ccc(-c2csnn2)cc1)c1cccs1", "hERG current change (%, negative = inhibition) at 1uM": 15.7},
      {"smiles": "CCOC(=O)COc1nc(Nc2ccccc2C)nc(N(C)C)n1", "hERG current change (%, negative = inhibition) at 1uM": 4.21},
      {"smiles": "O=C(NNS(=O)(=O)c1ccccc1[N+](=O)[O-])c1cccc([N+](=O)[O-])c1", "hERG current change (%, negative = inhibition) at 1uM": 8.49},
      {"smiles": "Cc1ccc(CS(=O)(=O)c2nc3c(c(N(C)C)n2)CCCC3)cc1", "hERG current change (%, negative = inhibition) at 1uM": 0.691},
      {"smiles": "COC(=O)C1=CN(c2ccc(F)cc2)C=C(C(=O)OC)C1c1ccc([N+](=O)[O-])cc1", "hERG current change (%, negative = inhibition) at 1uM": 5.42},
      {"smiles": "Cc1cc(=O)[nH]c(SCC(=O)N(CCC#N)c2ccccc2)c1C#N", "hERG current change (%, negative = inhibition) at 1uM": 10.3},
      {"smiles": "O=C(CCCOc1ccccc1)Nc1nnc(C2CCCO2)s1", "note": "(centres unmarked)", "hERG current change (%, negative = inhibition) at 1uM": 15.4},
      {"smiles": "O=C(c1ccc(F)cc1Cl)N(Cc1ccco1)C1CCS(=O)(=O)C1", "note": "(centres unmarked)", "hERG current change (%, negative = inhibition) at 1uM": 7.9},
      {"smiles": "CCOC(=O)Cn1c(=O)n(Cc2ccccc2)c(=O)c2cccnc21", "hERG current change (%, negative = inhibition) at 1uM": 0.721},
      {"smiles": "Cc1ccc(-c2csc(N3CCN(CCCn4c(-c5ccncc5)nc5ccccc54)CC3)n2)cc1", "hERG current change (%, negative = inhibition) at 1uM": 11.6},
      {"smiles": "O=C(COC(=O)c1c(F)cccc1Cl)NC1CCCC1", "hERG current change (%, negative = inhibition) at 1uM": 7.04},
      {"smiles": "CCOCC(=O)Nc1cc([N+](=O)[O-])ccc1OC", "hERG current change (%, negative = inhibition) at 1uM": 12.2},
      {"smiles": "COC(=O)c1sccc1-c1ccc(C(=O)Nc2cccc(Cl)c2)o1", "hERG current change (%, negative = inhibition) at 1uM": 19.4},
      {"smiles": "CC(=O)NC1CCN(CC(=O)Nc2nccs2)CC1", "hERG current change (%, negative = inhibition) at 1uM": 14.9},
      {"smiles": "O=C(NNC1=C(C(=O)C(F)(F)F)CCC1)c1ccccc1O", "hERG current change (%, negative = inhibition) at 1uM": 17.1},
      {"smiles": "Cn1nnc(NC(=S)NC(=O)c2cc(Cl)ccc2Cl)n1", "hERG current change (%, negative = inhibition) at 1uM": 17.6},
      {"smiles": "CCOC(=O)C1(Cc2ccccc2)CCCN(C2CCCC2)C1", "note": "(centres unmarked)", "hERG current change (%, negative = inhibition) at 1uM": 7.79},
      {"smiles": "CCCOc1cccc(C2/C(=C(/O)c3ccc(OC)cc3)C(=O)C(=O)N2CCN(C)C)c1", "note": "(centres unmarked)", "hERG current change (%, negative = inhibition) at 1uM": 7.35},
      {"smiles": "CCN(c1ccc(C)c(C)c1)S(=O)(=O)c1ccc2c(c1)CCN2C(=O)CCC(=O)O", "hERG current change (%, negative = inhibition) at 1uM": -2.34},
      {"smiles": "Cc1ccc(Cl)c(OC(=O)c2nn(C(C)C)c(=O)c3ccccc23)c1", "hERG current change (%, negative = inhibition) at 1uM": 3.46},
      {"smiles": "CCOC(=O)NNC(=S)Nc1c(C)n(C)n(-c2ccccc2)c1=O", "hERG current change (%, negative = inhibition) at 1uM": 8.77},
      {"smiles": "COc1ccc(CCC(=O)NNC(=O)c2ccc(OC)cc2)cc1", "hERG current change (%, negative = inhibition) at 1uM": 6.53},
      {"smiles": "COc1ccccc1C(=O)NCc1n[nH]c(=S)n1Cc1ccccc1", "hERG current change (%, negative = inhibition) at 1uM": 9.86},
      {"smiles": "CCCCCCn1c(SCCCC)nc2c1c(=O)[nH]c(=O)n2C", "hERG current change (%, negative = inhibition) at 1uM": 6.01},
      {"smiles": "CC(C)c1cccc(C(C)C)c1NC(=O)Cn1c(=O)cnc2ccccc21", "hERG current change (%, negative = inhibition) at 1uM": 6.47},
      {"smiles": "Cc1cc2n(n1)C(c1cn(-c3ccccc3)nc1C)Nc1c(C)cccc1-2", "note": "(centres unmarked)", "hERG current change (%, negative = inhibition) at 1uM": -4.96},
      {"smiles": "Nc1cc(=O)[nH]c(=O)n1CCCc1ccccc1", "hERG current change (%, negative = inhibition) at 1uM": 15.6},
      {"smiles": "CCc1ccccc1N1C(=O)c2cccc3c(N4CCOCC4)c([N+](=O)[O-])cc(c23)C1=O", "hERG current change (%, negative = inhibition) at 1uM": -4.44},
      {"smiles": "Cc1ccc(-c2nc3ncccc3o2)cc1NC(=O)Cc1ccc(Cl)cc1", "hERG current change (%, negative = inhibition) at 1uM": 18.5},
      {"smiles": "COc1ccc([N+](=O)[O-])cc1NC(=O)CCNC(=O)Cn1ccc2ccccc2c1=O", "hERG current change (%, negative = inhibition) at 1uM": 9.67},
      {"smiles": "CSc1ccc(CN(C)C(=O)c2cc3ccccc3o2)cc1", "hERG current change (%, negative = inhibition) at 1uM": 16},
      {"smiles": "C=CCOC(=O)/C(=C/c1ccco1)NC(=O)/C=C/c1ccccc1", "hERG current change (%, negative = inhibition) at 1uM": 8.2},
      {"smiles": "COC(=O)c1c(C(=O)OC)c(-c2ccc(OC)cc2)n2c1CS(=O)(=O)C2", "hERG current change (%, negative = inhibition) at 1uM": 15.1},
      {"smiles": "Cc1cc(Nc2ccccc2)n(-c2ccc(C(=O)O)cc2)n1", "hERG current change (%, negative = inhibition) at 1uM": 5.25},
      {"smiles": "N#Cc1cc(-c2ccccc2)cn(Cc2c(Cl)cccc2Cl)c1=O", "hERG current change (%, negative = inhibition) at 1uM": 8.39},
      {"smiles": "CCC(NC(=O)COc1ccc([N+](=O)[O-])cc1)c1ccccc1", "note": "(centres unmarked)", "hERG current change (%, negative = inhibition) at 1uM": -13.9},
      {"smiles": "O=[N+]([O-])c1ccc2[nH]c3nc4ccccc4nc3c2c1", "hERG current change (%, negative = inhibition) at 1uM": 19.5},
      {"smiles": "CCOC(=O)CCSc1nc(C)c2ccccc2n1", "hERG current change (%, negative = inhibition) at 1uM": 4.93},
      {"smiles": "Cc1cc(C)cc(OCC(=O)Nc2ccc(S(=O)(=O)Nc3ccccn3)cc2)c1", "hERG current change (%, negative = inhibition) at 1uM": 7.72},
      {"smiles": "COc1ccccc1NS(=O)(=O)c1cccc(NC(=O)Nc2ccc(Cl)cc2)c1", "hERG current change (%, negative = inhibition) at 1uM": 5.27},
      {"smiles": "Cn1c(=O)cc(OCCCC(=O)Nc2ccc3c(c2)OCCO3)c2ccccc21", "hERG current change (%, negative = inhibition) at 1uM": 17.2}
    ]}
  ]
}
